Some of the results follow. The list includes weakly bound sequences.

31 sequences from publication PMC12820563 can be followed below.

The assay deals with T1, MBP-FoxP3dN (UniProt Q99JB6).
T1 sequence: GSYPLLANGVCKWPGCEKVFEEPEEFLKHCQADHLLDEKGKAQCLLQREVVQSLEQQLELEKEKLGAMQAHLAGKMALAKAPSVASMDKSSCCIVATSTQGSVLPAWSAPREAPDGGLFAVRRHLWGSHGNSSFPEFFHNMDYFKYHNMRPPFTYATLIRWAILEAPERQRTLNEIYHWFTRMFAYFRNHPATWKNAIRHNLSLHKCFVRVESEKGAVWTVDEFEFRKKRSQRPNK
The assay is described as follows: PD-seq (MBP pull-down with sequencing). As to conditions: 20 mM Tris-HCl pH 7.5, 100 mM NaCl, 1.5 mM MgCl2, 0.4 uM protein, 0.1 uM dsDNA library, 30 min, room temperature, amylose pull-down; high values mean tight binding; double strand, one strand shown.
For the sequence “GATGATTGTTCTCCCAGCTGATGAATTGAGCCCTTCGAGTAAACAAATTTTCCTAATCTTTCTGTTCAAGCGCCATCTAC”, the binding signal (RPM ratio (pull-down/input)) was 0.799. The value for “GATGATTGTTCTCCCAGCTGATGAATTTTATAGTTCGAGTAAACAAATTTTCCTAATCTTTCTGTTCAAGCGCCATCTAC” was 0.933.

Regarding “GATGATTGTTCTCCCAGCTGATGAATTATCGACTTCGAGTAAACAAATTTTCCTAATCTTTCTGTTCAAGCGCCATCTAC”, the binding signal (RPM ratio (pull-down/input)) was 0.534.

On to “GATGATTGTTCTCCCAGCTGATGAATTTGAGAACTCGAGTAAACAAATTTTCCTAATCTTTCTGTTCAAGCGCCATCTAC”, for which the binding signal (RPM ratio (pull-down/input)) was 0.225.

Regarding “GATGATTGTTCTCCCAGCTGATGAATTAGACAGTTCGAGTAAACAAATTTTCCTAATCTTTCTGTTCAAGCGCCATCTAC”, the binding signal (RPM ratio (pull-down/input)) was determined as 0.365. The value for “GATGATTGTTCTCCCAGCTGATGAATTCCGGATGTCGAGTAAACAAATTTTCCTAATCTTTCTGTTCAAGCGCCATCTAC” was 0.333.

Regarding “GATGATTGTTCTCCCAGCTGATGAATTGGCTATGTCGAGTAAACAAATTTTCCTAATCTTTCTGTTCAAGCGCCATCTAC”, the binding signal (RPM ratio (pull-down/input)) was 0.789. Next, “GATGATTGTTCTCCCAGCTGATGAATTGGCCGTGTCGAGTAAACAAATTTTCCTAATCTTTCTGTTCAAGCGCCATCTAC”: 0.363; “GATGATTGTTCTCCCAGCTGATGAATTTTGAGAATCGAGTAAACAAATTTTCCTAATCTTTCTGTTCAAGCGCCATCTAC”: 0.279.

For “GATGATTGTTCTCCCAGCTGATGAATTCGATCAATCGAGTAAACAAATTTTCCTAATCTTTCTGTTCAAGCGCCATCTAC”, the binding signal (RPM ratio (pull-down/input)) stood at 0.281. The value for “GATGATTGTTCTCCCAGCTGATGAATTTCAGGTTTCGAGTAAACAAATTTTCCTAATCTTTCTGTTCAAGCGCCATCTAC” was 0.375; that for “GATGATTGTTCTCCCAGCTGATGAATTAAAGAATTCGAGTAAACAAATTTTCCTAATCTTTCTGTTCAAGCGCCATCTAC” was 0.677.

In the case of “GATGATTGTTCTCCCAGCTGATGAATTTCCGTACTCGAGTAAACAAATTTTCCTAATCTTTCTGTTCAAGCGCCATCTAC”, the binding signal (RPM ratio (pull-down/input)) turned out to be 0.33. For “GATGATTGTTCTCCCAGCTGATGAATTGTGAACTTCGAGTAAACAAATTTTCCTAATCTTTCTGTTCAAGCGCCATCTAC”, the binding signal (RPM ratio (pull-down/input)) turned out to be 0.508. The value for “GATGATTGTTCTCCCAGCTGATGAATTGATGACCTCGAGTAAACAAATTTTCCTAATCTTTCTGTTCAAGCGCCATCTAC” was 0.526; that for “GATGATTGTTCTCCCAGCTGATGAATTAGTCTGATCGAGTAAACAAATTTTCCTAATCTTTCTGTTCAAGCGCCATCTAC” was 0.373; that for “GATGATTGTTCTCCCAGCTGATGAATTCTTGTTGTCGAGTAAACAAATTTTCCTAATCTTTCTGTTCAAGCGCCATCTAC” was 2.36. The value for “GATGATTGTTCTCCCAGCTGATGAATTGAGCCATTCGAGTAAACAAATTTTCCTAATCTTTCTGTTCAAGCGCCATCTAC” was 3.53. Next, “GATGATTGTTCTCCCAGCTGATGAATTCATAACCTCGAGTAAACAAATTTTCCTAATCTTTCTGTTCAAGCGCCATCTAC”: 0.445; “GATGATTGTTCTCCCAGCTGATGAATTAGTTGACTCGAGTAAACAAATTTTCCTAATCTTTCTGTTCAAGCGCCATCTAC”: 4.37; “GATGATTGTTCTCCCAGCTGATGAATTGTTTCGTTCGAGTAAACAAATTTTCCTAATCTTTCTGTTCAAGCGCCATCTAC”: 1.24. In the case of “GATGATTGTTCTCCCAGCTGATGAATTCAGTTCGTCGAGTAAACAAATTTTCCTAATCTTTCTGTTCAAGCGCCATCTAC”, the binding signal (RPM ratio (pull-down/input)) was found to be 0.758. Next, “GATGATTGTTCTCCCAGCTGATGAATTCTAGATATCGAGTAAACAAATTTTCCTAATCTTTCTGTTCAAGCGCCATCTAC”: 0.375; “GATGATTGTTCTCCCAGCTGATGAATTGATCGGTTCGAGTAAACAAATTTTCCTAATCTTTCTGTTCAAGCGCCATCTAC”: 0.362. The value for “GATGATTGTTCTCCCAGCTGATGAATTCGTGAACTCGAGTAAACAAATTTTCCTAATCTTTCTGTTCAAGCGCCATCTAC” was 0.302. The value for “GATGATTGTTCTCCCAGCTGATGAATTTAACTAATCGAGTAAACAAATTTTCCTAATCTTTCTGTTCAAGCGCCATCTAC” was 0.238; that for “GATGATTGTTCTCCCAGCTGATGAATTGCGCGAGTCGAGTAAACAAATTTTCCTAATCTTTCTGTTCAAGCGCCATCTAC” was 1.18; that for “GATGATTGTTCTCCCAGCTGATGAATTGAATTGGTCGAGTAAACAAATTTTCCTAATCTTTCTGTTCAAGCGCCATCTAC” was 1.09.

Consider “GATGATTGTTCTCCCAGCTGATGAATTTTACTTTTCGAGTAAACAAATTTTCCTAATCTTTCTGTTCAAGCGCCATCTAC”, for which the binding signal (RPM ratio (pull-down/input)) came out at 0.576. The value for “GATGATTGTTCTCCCAGCTGATGAATTTAAGTTTTCGAGTAAACAAATTTTCCTAATCTTTCTGTTCAAGCGCCATCTAC” was 0.694. Turning to “GATGATTGTTCTCCCAGCTGATGAATTCTGTACATCGAGTAAACAAATTTTCCTAATCTTTCTGTTCAAGCGCCATCTAC”, the binding signal (RPM ratio (pull-down/input)) amounted to 1.1.
